# Measurements as given in PMC5836133.
# This is one part of the list. At the low end of the ranking the order means little.
# System: T1, GST-NbGlk1(82-244)
# T1 sequence: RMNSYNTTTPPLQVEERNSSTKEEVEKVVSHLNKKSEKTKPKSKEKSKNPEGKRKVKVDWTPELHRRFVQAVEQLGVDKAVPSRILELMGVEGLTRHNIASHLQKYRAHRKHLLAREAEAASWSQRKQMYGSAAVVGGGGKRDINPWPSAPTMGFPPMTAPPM
# Assay: protein-binding microarray;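 also: rank-based score ranging −0.5 to +0.5 with E above 0.45 taken as significant binding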
# Conditions: NbGlk1 is a Golden2-like transcription factor of Nicotiana benthamiana; high values mean tight binding; most listed sequences are background and not binding sites; double strand, one strand shown
row,Sequence,binding signal [E-score]
1,ACAAGGTG,-0.177
2,CAAGATGC,-0.175
3,AAGACACT,-0.22
4,AAGTGTGC,-0.148
5,ACTGCTGA,-0.0346
6,ATTCCAAT,0.166
7,ACGAGGCC,-0.201
8,AGTAAAGC,-0.118
9,ACGCATCA,0.028
10,AGAAGGAG,-0.256
11,AAACAGAT,0.229
12,AAAGTGTT,0.0304
13,ACTCTCGG,-0.104
14,AGTGCTAG,-0.111
15,AAGAAGTA,0.0303
16,ATTGCCAC,0.0927
17,ATCAAGGA,0.165
18,CACCATTC,-0.0672
19,AGCGGCAA,-0.152
20,AGAAGCAG,-0.112
21,AAAAGCAG,-0.0258
22,ACGACACC,-0.000925
23,ATAGTATA,0.0818
24,AGTGAGCA,0.0865
25,AACTGCCT,-0.129

row,Sequence,binding signal [E-score]
1,CAGCGGAG,-0.133
2,AGGACGTC,-0.201
3,AAATCTCC,0.439
4,CAAATCAG,0.268
5,AAGTGCGA,-0.0111
6,ATACGTTA,0.277
7,ATTGGAGA,0.141
8,ACACGAGG,-0.0474
9,ATCGCGGA,0.32
10,AACCACCG,-0.132
11,ACGACGTG,-0.0548
12,CAGATCTA,0.249
13,ACTGACAA,0.0717
14,CAAGATAC,0.263
15,AGCAGGAG,-0.272
16,ATCGACCG,-0.0411
17,ATATCCTC,0.402
18,ACGTGTAG,-0.0273
19,ACTAACCG,-0.0863
20,AAATCTGG,0.466
21,AGAACAGG,-0.149
22,ACTGGATC,0.107
23,AGTGGATA,0.257
24,ATCCACTA,0.247
25,ACGTATCA,0.163

row,Sequence,binding signal [E-score]
1,AATTTGTA,0.228
2,AGTTCTCC,-0.204
3,ACAAATGT,-0.0114
4,AAATCGGC,0.302
5,AGCGGTAT,0.0651
6,ACAAAATA,0.293
7,ATTGAAAT,0.244
8,CACCACGA,-0.0136
9,CAATCTCC,0.349
10,ATTGCCAA,0.134
11,ATAAGCCA,-0.0929
12,CAGAAATA,0.175
13,AGTTACAG,-0.11
14,AGCCTCGA,-0.0796
15,AGCGTTCG,-0.106
16,ATTTAAGC,0.0139
17,CAAATCCG,0.389
18,ACCCTCAG,-0.15
19,ACAAGGAA,-0.00047
20,AGTTCAGA,0.0608
21,ACGTAGCT,-0.126
22,AGTGAACG,-0.0314
23,ACGCACGG,-0.115
24,AAGGGATG,-0.0767
25,AACATATG,-0.0893

row,Sequence,binding signal [E-score]
1,AATCTGTA,0.414
2,ATATCCAG,0.395
3,AAGCTTTA,-0.156
4,ATTCTGTC,0.335
5,AAGGGGAT,0.203
6,ACTGAACC,-0.0808
7,CAAGTGCG,0.0152
8,AGAGATAT,0.391
9,AGGTCAGG,-0.235
10,CACAGTAG,-0.15
11,AATCGCCC,0.163
12,AACTGTGT,-0.12
13,AACGATCA,0.071
14,AGAGGGTA,-0.0038
15,ATCGTCAT,0.175
16,CACGAGGA,-0.0571
17,AGTAGGAA,-0.0223
18,AAGCTTAT,-0.043
19,ATTTGCGA,0.294
20,AAAAAGAG,-0.0797
21,CAAGGATA,0.229
22,AGAATCTA,0.48
23,AGGTGCAG,-0.109
24,CAAGCGTG,-0.257
25,AACTTCCA,-0.267

row,Sequence,binding signal [E-score]
1,ATGAGTGG,-0.0823
2,ATCGGTGC,-0.00623
3,ACGCGGCG,-0.204
4,AGGGAGGA,-0.0992
5,AACAGTCT,-0.199
6,AAGCCACA,-0.233
7,AGCCGTTC,-0.0961
8,AGAGAGTA,-0.0337
9,AGCGTCGC,-0.116
10,ACGACTGG,-0.172
11,AAATTTCT,0.177
12,AGGTACGA,-0.113
13,AAAGGAAA,-0.00944
14,ATACCCAG,0.185
15,ACGGCACG,-0.176
16,ACGGCAAC,-0.113
17,ACATGCAT,0.0266
18,ATCCCCAA,0.276
19,ACAGAAGG,-0.233
20,ACTTAGTC,-0.171
21,ATAATCAG,0.222
22,ATACATAT,0.204
23,AACTATAG,0.0186
24,AGGTGGTG,-0.14
25,AGTGGCGC,-0.291

row,Sequence,binding signal [E-score]
1,CAGATTAA,-0.027
2,AGTTGTCC,-0.236
3,ATGGTAGA,0.136
4,ACTATTAT,0.105
5,ACGCATCG,-0.0749
6,ATATGGAG,0.0522
7,ACATTTAT,0.114
8,ATATCCGA,0.402
9,ATAACCTG,-0.0659
10,AAACAAAG,-0.0268
11,AGACCGAG,-0.146
12,ATGCTGAA,0.014
13,CAGCATAG,0.00686
14,ATGTTTGG,-0.108
15,AGTGCGCA,0.16
16,AGGCGTTG,-0.131
17,ATGGACCA,-0.231
18,ACGTATAC,0.0202
19,CAATTAAG,0.0791
20,ATAGCGCA,0.0829
21,ATCTGTAA,0.331
22,AACACAAT,0.213
23,ACATCGGA,0.12
24,AGGTAACT,0.00979
25,ACCGGATG,0.0134

row,Sequence,binding signal [E-score]
1,AGTCAGTA,-0.0436
2,ATGACTGC,-0.125
3,ACACAACT,0.0134
4,ACTGGAAG,-0.0706
5,AACTATCC,0.00349
6,AACGATTG,0.0543
7,AGGCCACA,-0.122
8,CACGAGCC,-0.272
9,ATGACGAC,-0.135
10,ACTCCCGC,-0.0162
11,ATAAAAAA,0.217
12,CACAAATC,0.274
13,CACACCAA,-0.14
14,ACGGAGCT,-0.283
15,CACTCTAA,-0.00764
16,ATAGGAGG,-0.198
17,ATTGGAAA,0.0951
18,AAGGAAGA,-0.0623
19,ATCGATTC,0.347
20,AATCGCTG,0.234
21,AGTGACCC,-0.196
22,ACTAGCAG,-0.0801
23,AGTGTGAA,-0.0487
24,AGTGTGAC,-0.0876
25,ATGTTGAA,0.0521

row,Sequence,binding signal [E-score]
1,AGAAGAAT,0.211
2,AGCGGCTG,-0.246
3,AGGTTGAG,-0.15
4,AGCACGGC,-0.254
5,AGCGTGTA,-0.0986
6,AAATTTAA,0.181
7,AAGGGTTA,-0.155
8,AAAACATT,-0.0401
9,AGAGGACT,-0.169
10,AAATGAGC,-0.206
11,ATACCGAT,0.276
12,AGCGGGAT,0.16
13,AACTAGCA,0.0358
14,AGTCTATG,-0.118
15,ACTTCAGG,-0.0502
16,ACGTCACG,-0.0816
17,ACAGGCGA,0.00804
18,ATTTACTG,0.179
19,ACATATAC,0.0453
20,ATCAGGAC,0.121
21,ATGAGATC,0.369
22,CAATTCGA,-0.103
23,ATGTTGAG,0.0331
24,AACAGACA,0.0656
25,AACGTCTG,-0.232

row,Sequence,binding signal [E-score]
1,AGAATGGC,0.0395
2,ATTGTTCG,0.168
3,AAATGGCA,-0.137
4,ATGGTTGC,-0.133
5,AACTCAAT,0.0219
6,CAAGTAAA,0.0961
7,ACCAGAGA,0.0877
8,AACCAATG,-0.0901
9,AAGTTGTC,-0.0549
10,AAACTTAT,0.0935
11,AAGACCAG,-0.198
12,ACGAGTCG,-0.132
13,ACGACCTG,-0.199
14,ATCGACGA,0.0244
15,ACAACTTC,0.0159
16,CACCTGAC,-0.216
17,AGTGAAGC,-0.326
18,AACAATAC,0.123
19,AAGTCGAT,0.0692
20,ATCCTATC,0.258
21,AGCTCCGA,-0.141
22,AGAATAAA,0.111
23,CAAGGCAA,0.0148
24,CAGATCTC,0.423
25,ACACAGGC,-0.0796

row,Sequence,binding signal [E-score]
1,ACGCAAGG,-0.06
2,ACAGGCTC,-0.26
3,AACCAAGT,-0.0506
4,AGCGGCCA,-0.203
5,ACAGTACT,-0.0119
6,ATCTGCCA,0.256
7,AGGGTAAT,0.262
8,ATGGATCA,0.00621
9,ACAGGTCA,-0.081
10,AAACGCGC,0.0641
11,CACATAGG,-0.119
12,CAACGAAC,-0.144
13,ATTACGAA,0.341
14,ACATTTCG,0.192
15,CAACCTTC,-0.194
16,CAAAGAAA,0.0504
17,AGATTTGC,0.469
18,AGTCTTTG,-0.0203
19,AGGGCTGA,-0.175
20,CACGTTCC,-0.0575
21,ACTTTTGA,-0.0218
22,ACGCGTAA,0.0978
23,AAACTGTA,-0.125
24,AACGAGGA,-0.0079
25,AACACATA,0.00785

row,Sequence,binding signal [E-score]
1,ATAGTGCG,0.0274
2,ATGTTTAA,0.0991
3,AAGGCCCA,-0.243
4,AGCCCGAT,0.0183
5,ACAAACTA,0.0851
6,AAGGAGTC,-0.161
7,ACTAATAC,-0.0271
8,AAGAGGTA,-0.0613
9,ACTAGAAT,0.177
10,AGGATCCA,0.237
11,ACCATCCG,-0.0868
12,ATGTGACC,-0.232
13,AAATTAAA,0.0849
14,AGAGCACC,-0.325
15,AAGTACGG,-0.118
16,ACATAATA,0.13
17,AGTAATGA,0.00256
18,AACTAGCG,-0.134
19,CAGCAACC,-0.101
20,CAACACTA,0.00718
21,AGCAAGAA,-0.0277
22,AGCGCTCC,-0.162
23,ATATGAAA,0.266
24,AGGGTTAA,-0.0971
25,ACAGATCA,0.0773

row,Sequence,binding signal [E-score]
1,ACCCGTCG,-0.193
2,ACGACATC,0.109
3,ATATGATA,0.219
4,ACACTAGC,-0.14
5,AATTGCTC,0.0671
6,ATCCAGAC,0.19
7,AGAAACTA,0.0805
8,ATTACTCA,0.208
9,ACACCGAC,-0.218
10,ATGAGGCC,-0.207
11,ACACATCC,-0.0375
12,AGCGAAGA,-0.0249
13,CACGCTAC,0.00212
14,ATTATGCC,0.117
15,ACAGATAC,0.276
16,ATGACACA,0.0337
17,AACCGACT,-0.117
18,AACTCAGA,0.0536
19,ACTCATTG,0.0113
20,AACAACGC,-0.0594
21,ATGGTGTA,0.0435
22,AAAAACTC,0.0348
23,ACATCGGT,-0.128
24,AGTCTTTC,-0.0646
25,AAATGTTA,0.101

row,Sequence,binding signal [E-score]
1,ATCTTGTC,0.31
2,ATTTTAGA,0.221
3,AAAGTTCT,0.0429
4,ACGATGTG,-0.0692
5,ACGCAAAG,-0.119
6,AAGAGCCA,-0.086
7,ATTCCATG,0.229
8,ACGCCAGG,-0.267
9,ACGGTCAG,-0.174
10,ATTTAGAC,0.144
11,AGATCGCG,0.464
12,CAAGTTCA,0.0808
13,AAGTCAGG,-0.0361
14,AGTGATAT,0.298
15,ACACGTGG,-0.0907
16,AATAGCCT,-0.133
17,AAGTGCAG,-0.141
18,ATAAGGGA,-0.0325
19,ACGGCTAT,-0.0409
20,AGGGTAGC,-0.278
21,AACTTGCT,-0.0985
22,ATGGAGCC,-0.333
23,AGTAGCCA,-0.217
24,AAAGAAGC,-0.128
25,CAACATGA,0.0303

row,Sequence,binding signal [E-score]
1,AGCTGCGA,-0.121
2,ATATAATC,0.297
3,ACCGTGCA,-0.0141
4,AGAAAGCA,-0.109
5,AACCCATG,-0.207
6,ACGCTGTC,-0.229
7,ACCATACG,-0.0596
8,ACATCCTA,-0.0295
9,AACACAGT,-0.124
10,CAGCCTGG,-0.129
11,AATACGTG,0.216
12,AGCTAAAA,-0.0774
13,AGTCGATG,-0.0548
14,ATAGACAC,0.012
15,ACCGCCCG,-0.0529
16,ATCGATCG,0.128
17,AGTTTAAA,0.0899
18,AGACAAAG,-0.161
19,AATCATGC,0.05
